The source of these data is US20090291088A1, “THERAPEUTIC COMBINATIONS OF ANTI-IGF-1R ANTIBODIES AND OTHER COMPOUNDS” (Biogen Idec MA Inc., priority 2008, published 2009).

Test [1] has as its target T1, IGF-1R-expressing MCF7 cells (Homo sapiens, UniProt P08069).
T1 construct: endogenous in cells; host or cells: MCF7 human mammary adenocarcinoma cells
Description: FACS staining of MCF7 cells with conditioned medium of chimeric antibody transfectants. The class given is binding. The note with it: conditioned medium from transfected 293-EBNA cells. On the procedure: The chP2A7 heavy chain expression vector and the chP2A7 light chain expression vector were co-transfected into 293-EBNA cells and transfected cells were tested for antibody secretion and specificity. Empty vector- and hu5c8-S228P/T299A IgG4 (a molecularly cloned CD40L-specific mAb)-transfected cells served as controls. […] CHO cells were co-transfected with the chP2A7 heavy chain expression vector and the chP2A7 light chain expression vector to generate stable lines expressing chimeric P2A7-aglycosylated huIgG4, kappa mAb.
The ch20C8 heavy chain expression vector and ch20C8 light chain expression vector were co-transfected into 293-EBNA cells and transfected cells were tested for antibody secretion and specificity. Empty vector- and hu5c8-S228P/T299A IgG4 (a molecularly cloned CD40L-specific mAb)-transfected cells served as controls. […] CHO cells were co-transfected with the ch20C8 heavy chain expression vector and ch20C8 light chain expression vector to generate stable lines expressing chimeric 20C8-aglycosylated huIgG4, kappa mAb.
The chP1G10 heavy chain expression vector and chP1G10 light chain expression vector were co-transfected into 293-EBNA cells and transfected cells were tested for antibody secretion and specificity (empty vector- and hu5c8-S228P/T299A IgG4 (a molecularly cloned CD40L-specific mAb)-transfected cells served as controls). […]

The next test concerns the target IGF-1R (Homo sapiens, UniProt P08069). Nature of the test: Ligand blocking assay (RIA): 125I-IGF-1 / 125I-IGF-2 binding to immobilized IGF-1R. The note with it: 100 nM-0.01 nM antibody, IGF-1R-Fc. On the set-up: human IGF-1R(1-903)-Fc (denoted hIGF-1R-Fc, generated by Biogen Idec). From the text: Ligand blocking assay (RIA). […] Insulin (Arg-Insulin, Cat #01-207) was purchased from Upstate Cell Signaling Solutions (Lake Placid, N.Y. (now part of Millipore, Concord, Mass. (USA)). ^125I-rhIGF-1 (Cat # IM172), ^125I-rhIGF-2 (Cat# IM238) and ^125I-rhInsulin (Cat# IM166) were purchased from Amersham Biosciences (Piscataway, N.J.). AffiPure goat anti-human IgG, Fcγ fragment specific antibodies (Cat #109-005-098, Jackson ImmunoResearch, West Grove, Pa.) was used for IGF-1R-Fc capture. As detection antibody, goat anti-mouse IgG HRP (Cat #1030-05, Southern Biotech Birmingham, Ala.) was used. […]
Recombinant human IGF-1R (Histidine tagged version) or IGF-1R-Fc was coated onto IMMULON2 HB (high binding) Removawell strips (Dynex Technologies, Inc., cat. #6302) diluted with carbonate coating buffer pH 9.5 to a concentration of 250 ng/well. […] The air-dried wells were counted with the Isodata Gamma Counter.
Alternatively, Fabs were evaluated by a modified capture assay, where the IGF-1R-Fc was captured using anti-human IgG immobilized to a plate. […]
The ligand blocking ability of the anti-IGF-1R antibody was determined by a solid phase RIA capture method as described in Example 3. […] After 1 hour of incubation at room temperature, the wells were washed and counted for bound radioactivity by a Gamma Counter. […] Percent (%) inhibition was calculated as =[1−(Ave.CPM with Ab)/(Ave.CPM with buffer)]×100%.

B1: chP2A7: murine-human chimera: muP2A7 variable regions linked to aglycosylated human IgG4 and kappa constant regions; SEQ ID NO:135, 139 (antibody)
heavy: QVQLQQSGPELVKPGASVKMSCKASGNTFTDYVINWVKQRTGQGLEWIGEIYPGNENTYYNEKFKGKATLTADKSSNTAYMQLSSLTSEDSAVYFCARGIYYYGSRTRTMDYWGQGTSVTVSSASTKGPSVFPLAPCSRSTSESTAALGCLVKDYFPEPVTVSWNSGALTSGVHTFPAVLQSSGLYSLSSVVTVPSSSLGTKTYTCNVDHKPSNTKVDKRV[human IgG4 Fc with S228P T299A (EU numbers) not written out]
light: EVVLTQSPTAMAASPGEKITITCSASSTLSSNYLHWYQQKPGFSPKLLIYRTSNLASGVPGRFSGSGSGTSYSLTIGTMEAEDVATYYCQQGSSIPLTFGAGTKLELKRTVAAPSVFIFPPSDEQLKSGTASVVCLLNNFYPREAKVQWKVDNALQSGNSQESVTEQDSKDSTYSLSSTLTLSKADYEKHKVYACEVTHQGLSSPVTKSFNRGEC
modifications: Antibody chimeric heavy chain; Chimeric antibody light chain
Take B1: the “binding to IGF-1R-expressing MCF7 cells (FACS)” value in test [1] is reported as “bound”.

B2: chP1G10: chimeric P1G10-aglycosylated huIgG4, kappa mAb; SEQ ID NO:147, 149 (antibody)
heavy: QIQLVQSGPDLKKPGETVKISCKASGYTFTNHGMNWVKQAPGKDLKWMGWINTNTGEPTYADDFKGRFAFSLETSASTAYLQINNLKNEDTATYFCASPLYYRNGRYFDVWGAGTTVTVSSASTKGPSVFPLAPCSRSTSESTAALGCLVKDYFPEPVTVSWNSGALTSGVHTFPAVLQSSGLYSLSSVVTVPSSSLGTKTYTCNVDHKPSNTKVDKRV[human IgG4 Fc with S228P T299A (EU numbers) not written out]
light: DIQMTQTTSSLSASLGDRVTISCRASQDISNYLNWYQQKPDGSVKLLIYYTSRLHSGVPSRFSGSGSGTDYSLTISNLEQEDIATYFCQQGKTLPWTFGGGTKLEIKRTVAAPSVFIFPPSDEQLKSGTASVVCLLNNFYPREAKVQWKVDNALQSGNSQESVTEQDSKDSTYSLSSTLTLSKADYEKHKVYACEVTHQGLSSPVTKSFNRGEC
modifications: Chimeric antibody heavy chain; Chimeric antibody light chain
Turning to B2, the “binding to IGF-1R-expressing MCF7 cells (FACS)” value in test [1] was “bound with a titratable dose response”.

B3: M14-B01.G4.P.agly: full-length aglycosylated human IgG4.P version of Fab M14-B01 (antibody)
heavy: EVQLLESGGGLVQPGGSLRLSCAASGFTFSNYHMAWVRQAPGKGLEWVSVISPTGGRTTYADSVKGRFTISRDNSKNTLYLQMNSLRAEDTATYYCARAGYSYGYGYFDYWGQGTLVTVSSASTKGPSVFPLAPCSRSTSESTAALGCLVKDYFPEPVTVSWNSGALTSGVHTFPAVLQSSGLYSLSSVVTVPSSSLGTKTYTCNVDHKPSNTKVDKRV[human IgG4 Fc with S228P T299A (EU numbers) not written out]
light: DIQMTQFPATLSVSPGERATLSCRASQSVMRNLAWYQQKPGQPPRLLIYGASKRATGIPARFSGSGSGTAFTLTISNLEPEDFAVYYCHQRSTWPLGTFGPGTKLEAKRTVAAPSVFIFPPSDEQLKSGTASVVCLLNNFYPREAKVQWKVDNALQSGNSQESVTEQDSKDSTYSLSSTLTLSKADYEKHKVYACEVTHQGLSSPVTKSFNRGEC
In the case of B3, the “blocking of IGF-1 and IGF-2 binding to IGF-1R” value in the test with IGF-1R was “block both IGF-1 and IGF-2 binding”.
